Measured values: PubChem BioAssay AID504832 (National Center for Advancing Translational Sciences (NCATS), 2011)
About 18,000 (5.8%) of roughly 310,000 compounds were called active. The shares of active, inactive and inconclusive entries below differ from those in the screen. Calls come from the whole dose curve; as a rule, active = well fitted inhibition curve with a large enough effect; inconclusive = small, poorly fitted or top-dose-only effect, or another doubt; inactive = no such curve, though single readings can be large or run the other way. No potency is given beside an inconclusive call; the fits are too rough.

Experiment: Primary qHTS for delayed death inhibitors of the malarial parasite plastid, 48 hour incubation
Details: P. falciparum luciferase growth in erythrocytes; series mostly up to 28.7 µM; activity change, negative = inhibition: at the top concentration
Procedure, shortened: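 Read-out is firefly luciferase luminescence from an integrated reporter in P. falciparum, so falling signal marks reduced parasite growth. Infected erythrocytes were at 2% hematocrit and 0.1% parasitemia (final) in Albumax-supplemented RPMI 1640.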
% is set by controls: 0 for no effect and ±100 for the full control effect; potency is the fitted concentration of half-maximal effect; tags give direction and shape of the fitted curve.

Compound | Potency | activity change, negative = inhibition
COC(=O)c1cnn2c1C(=O)N(Cc1cccs1)CC2 | inconclusive [inhibitor, single point] | –
Cc1cc(S(=O)(=O)N2CCCOC2CNC(=O)C(=O)NCc2cccs2)ccc1F (stereo not given) | – | inactive: -13.2%
Cn1c(=O)c2c(nc(SCCN3CCOCC3)n2Cc2cccc3ccccc23)n(C)c1=O | inconclusive [inhibitor, partial curve, poor fit] | –
NC(=O)c1ccsc1NC(=O)CN1C(=O)NC2(CCCCC2)C1=O | – | inactive: 1.65%
c1ccc(Cn2nnnc2C(c2cccs2)N2CCSCC2)cc1 (stereo not given) | inconclusive [inhibitor, partial curve] | –
C=CCNc1nc(N)c([N+](=O)[O-])c(NC2CCCCC2)n1 | active: 14.7 µM | –
Cc1nc(NC(=O)c2ccc(Br)s2)sc1C(=O)N(C)C | – | inactive: 212%
Cc1cccc(-c2cc3nc(C)cc(N4CC(C)CC(C)C4)n3n2)c1 (stereo not given) | – | inactive: 20.6%
O=C(NNc1nc(-c2ccc(F)cc2)cs1)c1ccccc1 | active: 5.22 µM | –
CCN(CCCC(=O)c1ccc(F)cc1)CCc1ccccc1 | – | inactive: -23.2%
C=CCOc1ccc(C2C(C#N)=C(N)N(Nc3ccccc3)C3=C2C(=O)CC(C)(C)C3)cc1OC (stereo not given) | active: 8.28 µM | –
O=C(CCCC1=NS(=O)(=O)c2ccccc2N1)OCc1ccc(Cl)cc1 | inconclusive [inhibitor, single point] | –
CCOc1ccc(-c2nnc(-c3ccco3)o2)cc1 | – | inactive: -31.2%
CCn1c(=S)sc2c(=O)n(CC(=O)Nc3cccc(OC)c3)c(C)nc21 | – | inactive: 33.8%
Clc1ccc(COn2c(-c3ccc(Cl)cc3Cl)nc3ncccc32)cc1 | inconclusive [inhibitor, partial curve] | –
Cc1cccc(OCC(O)Cn2c(N3CCCCC3)nc3c2c(=O)[nH]c(=O)n3C)c1 (stereo not given) | inconclusive [inhibitor, partial curve, poor fit] | –
O=C(NCc1cccc(CNC(=O)Nc2cccc(O)c2)c1)Nc1cccc(O)c1 | inconclusive [inhibitor, single point] | –
CCC(C(=O)Nc1cc(C)nn1-c1nc(C)cc(C)n1)c1ccccc1 (stereo not given) | inconclusive [inhibitor, partial curve] | –
CCC(=O)Nc1nc2ccccc2n1Cc1ccccc1Cl | active: 3.29 µM | –
Cc1ccccc1CC(=O)OCC(=O)Nc1ccc(C)c(S(=O)(=O)N2CCCCC2)c1 | active: 10.4 µM | –
CCN(C(=O)c1ccc(C(C)(C)C)cc1)c1nnc(Cn2nnc3ccccc32)s1 | active: 10.4 µM | –
CC1Cc2ccccc2N1S(=O)(=O)c1cccc(C(=O)N2Cc3ccccc3CC2C(N)=O)c1 (stereo not given) | inconclusive [inhibitor, partial curve] | –
COc1ccc(OC)c(C(=O)c2ccc(C(=O)N3CCCCC3)cc2)c1 | – | inactive: -18.4%
Cc1ccc(NC(=O)COc2ccccc2CNC(C)(C)CC(C)(C)C)cc1 | active: 7.38 µM | –

Compound | Potency | activity change, negative = inhibition
COc1ccc(C2=NNC(c3cccs3)=Nc3ccc(OC)cc32)cc1 | inconclusive [inhibitor, single point] | –
N#Cc1ccccc1COC(=O)CCC(=O)c1cccs1 | inconclusive [inhibitor, single point] | –
COc1ccc(Br)cc1/C=C/C(=O)NC(=S)Nc1ccc(CN2CCOCC2)cc1 | inconclusive [inhibitor, partial curve] | –
Cc1ccc(S(=O)(=O)N(C)C)cc1-n1c(SCC(=O)Nc2ccc(F)c(F)c2F)nc2ccccc2c1=O | inconclusive [inhibitor, partial curve, poor fit] | –
CNC(=O)c1nc(C)n(-c2cc(Cl)ccc2Cl)n1 | – | inactive: 0.14%
CCOc1ccc(NS(=O)(=O)c2ccc3c(c2)N(C(C)=O)CCS3)cc1 | inconclusive [inhibitor, partial curve, poor fit] | –
CCOc1cc(CNc2ccc(N3CCCC3)cc2)cc(Cl)c1OC | active: 2.94 µM | –
CC(=O)NC(NC(C)=O)c1cccc(OCc2ccccc2)c1 | – | inactive: 13.3%
COc1ccc(C(=O)/C(=C\c2sccc2C)c2nc3ccccc3o2)cc1 | inconclusive [inhibitor, full curve] | –
Cc1ccccc1N(C(=O)c1snc(C(N)=O)c1N)C(C(=O)NCC1CCCO1)c1ccc(F)cc1 (stereo not given) | inconclusive [inhibitor, single point] | –
COc1ccc(OC)c(C2C3CN(C(C)C)CC=C3C(C#N)=C(N)C2(C#N)C#N)c1 (stereo not given) | inconclusive [inhibitor, partial curve, poor fit] | –
CC(=O)Nc1ccc(Oc2cnccn2)cc1 | – | inactive: 24.1%
COc1ccc(NS(=O)(=O)c2cccc(C(=O)NCC(c3ccccc3OC)N3CCCC3)c2)cc1 (stereo not given) | active: 10.4 µM | –
Cc1ccc(-c2nnn(CC(=O)N(Cc3ccccc3)C(C(=O)NC(C)(C)C)c3ccncc3)n2)o1 (stereo not given) | inconclusive [inhibitor, single point] | –
Cc1cc(C(=O)NC2CCCc3c2cnn3-c2ccc(C)c(C)c2)n(C)n1 (stereo not given) | inconclusive [inhibitor, full curve, poor fit] | –
CC(C)(CO)NCc1c(OCc2ccc(Cl)cc2)ccc2ccccc12 | inconclusive [inhibitor, partial curve, poor fit] | –
O=C(c1ccc(F)cc1)N1CCC2(CC1)OCCO2 | inconclusive [inhibitor, single point] | –
CCN(C(=O)COC(=O)c1cc([N+](=O)[O-])ccc1N1CCOCC1)C1CCCCC1 | inconclusive [inhibitor, partial curve, poor fit] | –
Cn1cc(C(=O)NCc2ccc(Cl)cc2)c(=O)c2cc(S(=O)(=O)N3CCOCC3)ccc21 | inconclusive [inhibitor, partial curve, poor fit] | –
COc1ccc(C(=O)CCC(=O)NCCc2c[nH]c3ccccc23)cc1 | – | inactive: -10.5%
COc1ccc(C(=O)CN2C(=O)c3ccccc3S2(=O)=O)cc1 | active: 7.38 µM | –
Cc1nn(-c2ccccc2)c(Cl)c1/C=N/Nc1nc2ccccc2[nH]1 | active: 0.738 µM | –
O=c1oc2ccc3ccccc3c2cc1-c1nnc(-c2ccccc2)o1 | – | inactive: 22.1%
Cc1ccc2cc(C3C(C#N)=C(N)Oc4c3ccc3cccnc43)c(=O)[nH]c2c1 (stereo not given) | inconclusive [inhibitor, single point] | –

Compound | Potency | activity change, negative = inhibition
Cc1ccc(C)c(-n2cc(CNC(C)Cn3cncn3)c(-c3ccccc3)n2)c1 (stereo not given) | active: 13.1 µM | –
CC(C)(C)c1ccc(/C=N/Nc2cccc(C(=O)O)c2)cc1 | – | inactive: 339%
CCCCc1cc2c(cc1NC(=O)CN1CCCCC1)OCCO2 | – | inactive: -0.0825%
COc1ccc(-c2cc(C(=O)N3CCCCC3)c3ccccc3n2)cc1OC | inconclusive [inhibitor, single point] | –
COc1ccc(C2SCC(=O)Nc3c2c(C)nn3-c2ccccc2)cc1OC (stereo not given) | – | inactive: -2.01%
CCOC(=O)N1CCC(NS(=O)(=O)c2cc(Br)cc3c2N(C(=O)CC)CC3)CC1 | active: 8.28 µM | –
COc1ccc(NC(=S)NC(NC(=O)c2cccc(C)c2)C(Cl)(Cl)Cl)c([N+](=O)[O-])c1 (stereo not given) | active: 3.29 µM | –
CCc1ccc2c(c1)cc(CN(C(=S)Nc1cccc(C)c1)C1CC1)c1nnnn12 | inconclusive [inhibitor, full curve] | –
CCOc1cccc(C(=O)Nc2cccc(-c3nnc(-c4ccc(C)cc4)o3)c2)c1 | inconclusive [inhibitor, partial curve, poor fit] | –
CC(C)Cc1ccc(C(C)C(=N)N)cc1 (stereo not given) | inconclusive [inhibitor, single point] | –
CCOC(=O)CNC(=O)C1(/C=C/c2ccccc2)CC(=O)N1c1ccc(C)cc1 (stereo not given) | inconclusive [inhibitor, partial curve, poor fit] | –
Cc1ccc(CCNC(=O)C2CCCN(S(=O)(=O)N3CC(C)CC(C)C3)C2)cc1 (stereo not given) | – | inactive: -12.2%
CCOc1ccc(C(=O)CCC(=O)N2CCN(c3ncccn3)CC2)cc1 | inconclusive [inhibitor, partial curve, poor fit] | –
CCC/C=C(\CCC)C(NC(=O)OCC(C)C)c1ccc(C(=O)OC)cc1 (stereo not given) | inconclusive [inhibitor, single point] | –
COc1ccc(O)c(CN2CCCC(N3CCN(c4ccccc4OC)CC3)C2)c1 (stereo not given) | inconclusive [inhibitor, partial curve, poor fit] | –
C1=C(N2CCOCC2)/C(=C/c2nc3ccccc3[nH]2)CC1 | inconclusive [inhibitor, single point] | –
O=C(CN(C1CCCCC1)S(=O)(=O)c1ccc(F)cc1)Nc1ccc2c(c1)OCO2 | inconclusive [inhibitor, single point] | –
N#CCc1ccc(NC(=O)Nc2cccc(Cl)c2)cc1 | inconclusive [inhibitor, single point] | –
CC(C)C(=O)N1CCC2(CC1)Oc1ccc(F)cc1C(=O)C21CC(c2ccccc2)=NO1 (stereo not given) | inconclusive [inhibitor, single point] | –
COc1ccc(CCNC(=O)C2CCCN(Cc3nc(-c4ccccc4C)oc3C)C2)cc1OC (stereo not given) | inconclusive [inhibitor, single point] | –
Cc1ccc2c(c1)N(CCC(=O)NCc1cccnc1)C(=O)CO2 | inconclusive [inhibitor, single point] | –
Cc1nn2c(CN(C(=O)CN3CCOCC3)c3ccccc3)nnc2c2ccccc12 | – | inactive: -8.71%
